The source of these data is article PMC6642205.

Protein sequences, listed by entry. Tags and fused reporters are not part of them. Lines headed by an entry give the natural chain unless they say otherwise; changes in a name come on top.
UniProt Q7Z434: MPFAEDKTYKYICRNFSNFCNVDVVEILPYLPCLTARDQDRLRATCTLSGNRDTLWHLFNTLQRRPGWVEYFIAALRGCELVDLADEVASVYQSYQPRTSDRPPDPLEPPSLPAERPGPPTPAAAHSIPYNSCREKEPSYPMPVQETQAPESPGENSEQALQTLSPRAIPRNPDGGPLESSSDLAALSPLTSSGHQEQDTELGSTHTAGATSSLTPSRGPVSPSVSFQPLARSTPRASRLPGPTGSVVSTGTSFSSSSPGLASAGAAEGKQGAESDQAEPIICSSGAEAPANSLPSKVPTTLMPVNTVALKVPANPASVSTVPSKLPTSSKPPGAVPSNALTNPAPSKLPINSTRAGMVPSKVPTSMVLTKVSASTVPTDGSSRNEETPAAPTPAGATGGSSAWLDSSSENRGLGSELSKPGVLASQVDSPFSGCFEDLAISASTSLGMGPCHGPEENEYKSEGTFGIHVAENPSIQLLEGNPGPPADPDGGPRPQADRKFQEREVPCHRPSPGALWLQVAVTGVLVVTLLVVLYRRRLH

The target of assay [1] is T1, NLK (Nemo-like kinase), transfected, tag not stated (UniProt Q9UBE8).
T1 sequence: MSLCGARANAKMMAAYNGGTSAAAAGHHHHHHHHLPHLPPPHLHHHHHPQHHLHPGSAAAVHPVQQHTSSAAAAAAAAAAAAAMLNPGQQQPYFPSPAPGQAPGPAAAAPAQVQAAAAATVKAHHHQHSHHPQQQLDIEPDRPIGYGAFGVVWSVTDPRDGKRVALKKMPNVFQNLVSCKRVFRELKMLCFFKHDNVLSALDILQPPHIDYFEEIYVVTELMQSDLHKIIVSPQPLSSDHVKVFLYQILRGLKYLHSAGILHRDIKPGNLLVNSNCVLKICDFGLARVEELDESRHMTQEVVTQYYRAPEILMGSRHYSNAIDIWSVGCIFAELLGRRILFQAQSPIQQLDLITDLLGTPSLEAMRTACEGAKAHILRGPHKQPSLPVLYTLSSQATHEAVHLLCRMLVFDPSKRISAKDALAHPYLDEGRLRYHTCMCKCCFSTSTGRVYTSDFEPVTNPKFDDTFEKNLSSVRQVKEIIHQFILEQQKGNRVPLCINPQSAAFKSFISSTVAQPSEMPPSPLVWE
The assay is described as follows: co-IP; competition: 20 µg/ml NAMDAP peptide added to HEK293T cells transfected with NLK and MAVS (MG132, SeV, 8 h) before immunoprecipitation; only the binder purified.

For assay [2], the target named is T2, endogenous IRF3 of mouse BMDMs (mouse (endogenous in BMDMs)), P70671.
T2 chain: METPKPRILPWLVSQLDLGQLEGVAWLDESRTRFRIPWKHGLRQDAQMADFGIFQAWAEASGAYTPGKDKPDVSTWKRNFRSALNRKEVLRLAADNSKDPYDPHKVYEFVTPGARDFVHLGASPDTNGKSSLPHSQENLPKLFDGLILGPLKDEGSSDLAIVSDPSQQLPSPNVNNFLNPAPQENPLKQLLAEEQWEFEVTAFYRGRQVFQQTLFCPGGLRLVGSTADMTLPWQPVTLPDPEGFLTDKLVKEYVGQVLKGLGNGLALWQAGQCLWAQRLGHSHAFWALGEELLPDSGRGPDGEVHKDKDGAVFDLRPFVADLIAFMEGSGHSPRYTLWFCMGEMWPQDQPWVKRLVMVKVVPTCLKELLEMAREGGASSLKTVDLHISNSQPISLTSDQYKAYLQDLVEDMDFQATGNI
The experiment in a line: native gel or EMSA. Particulars: remark: other sources report otherwise. On the technique in general: A gel shift assay detects complexes by their altered migration in electrophoresis.

Assay [3] addresses HA-MAVS (mitochondrial antiviral-signaling protein) (UniProt Q7Z434). The assay is described as follows: co-IP.
The next assay has as its target T3, TBK1 (UniProt Q9UHD2).
T3 sequence: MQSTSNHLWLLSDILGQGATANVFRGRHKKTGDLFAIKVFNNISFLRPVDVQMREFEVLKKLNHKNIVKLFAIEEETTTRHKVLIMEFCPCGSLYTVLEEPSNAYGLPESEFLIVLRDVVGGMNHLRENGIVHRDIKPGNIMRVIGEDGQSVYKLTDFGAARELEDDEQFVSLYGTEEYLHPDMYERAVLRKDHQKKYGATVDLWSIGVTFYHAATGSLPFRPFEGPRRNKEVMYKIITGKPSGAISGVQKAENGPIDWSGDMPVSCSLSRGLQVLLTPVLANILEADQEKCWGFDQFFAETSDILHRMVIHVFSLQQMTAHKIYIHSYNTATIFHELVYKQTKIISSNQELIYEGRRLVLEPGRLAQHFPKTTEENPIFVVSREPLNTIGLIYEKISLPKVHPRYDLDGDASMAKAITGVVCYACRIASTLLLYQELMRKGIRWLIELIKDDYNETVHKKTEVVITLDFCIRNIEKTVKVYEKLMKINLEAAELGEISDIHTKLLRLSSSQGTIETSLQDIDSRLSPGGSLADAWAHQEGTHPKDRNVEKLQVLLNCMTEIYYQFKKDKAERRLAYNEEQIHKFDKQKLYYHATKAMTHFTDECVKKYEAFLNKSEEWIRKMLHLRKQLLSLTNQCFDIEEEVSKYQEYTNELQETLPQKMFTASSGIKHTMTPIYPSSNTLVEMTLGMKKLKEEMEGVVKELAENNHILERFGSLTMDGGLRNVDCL
The experiment in a line: co-IP; […] antibody and Protein G beads, 4 °C, 5 h; immunoblot. On the technique in general: Immunoblotting shows a protein as a band on a membrane.

Assay [4] concerns the target endogenous MAVS (mitochondrial antiviral-signaling protein) (human (endogenous in HEK293T)) (UniProt Q7Z434). The assay is described as follows: co-IP; endogenous proteins of HEK293T cells, with or without SeV stimulation (16 h); NP40 lysis buffer; immunoblot.
The target of assay [5] is MAVS (mitochondrial antiviral-signaling protein), transfected, tag not stated (UniProt Q7Z434). The experiment in a line: co-IP.

These are yes or no findings as the source states them, for the method shown. For part of these data: Binding seen in cells or lysates may run through a third protein. Some binding calls cover weakened binding; strength is not graded here. For part of these data: Tags and fused reporters may be left off the sequences shown.

“NLK-associated and MAVS-derived antiviral peptide (NAMDAP) (from UniProt Q7Z434 471-480)”: in assay [1], the binding entry is “binds”.

B1: endogenous IRF3 of mouse BMDMs, P70671 1-419 (protein)
chain: T2 chain
As to B1, the binding entry in assay [2] is “binds”.

B2: Flag-NLK (Nemo-like kinase) (enzyme, UniProt Q9UBE8 1-527)
chain: T1 sequence
B2: the binding result in assay [3] is given as “binds”; with TBK1, “no binding”.

B3: endogenous NLK (Nemo-like kinase) (enzyme, UniProt Q9UBE8 1-527)
chain: T1 sequence
For the molecule B3, the binding result in assay [4] is “binds”.

B4: NLK (Nemo-like kinase), transfected, tag not stated (enzyme, UniProt Q9UBE8 1-527)
chain: T1 sequence
For the molecule B4, the binding entry in assay [5] is on record as “binds”.
